Laboratory results published in patent US11000038B2, “Pyridone compounds and agricultural and horticultural fungicides containing the same as active ingredients” (priority 2017, dated 2021).
Like-named read-outs stand apart in the source and are kept apart here.

Legend:
[1] = tested on: cucumber anthracnose fungi (Colletotrichum orbiculare); experiment: Test Example H: cucumber anthracnose, spray treatment of cucumber plants; conditions: for Test H control value: cucumber anthracnose, 6 to 10 days after inoculation; for Test H control value class (cucumber anthracnose): 2.5 ml/pot, cucumber Sagami Hanjiro, 6 to 10 days from inoculation
[2] = tested on: tomato late blight fungi (Phytophthora infestans); type: in vivo; conditions: for Test F control value: tomato late blight; for Test F control value class (tomato late blight): control value=100{1-(n/3)}
[3] = tested on: rice blast fungi (Magnaporthe grisea); type: in vivo; conditions: for Test A control value: rice blast; for Test A control value class (rice blast): control value=100{1-(n/3)}
[4] = spray treatment of tomato plants

Cc1cccc(F)c1-c1c(Cl)c(=O)c(Br)cn1-c1ccccc1 [Compound 609]
Test H control value ([1]; 250 ppm spray): H (H shows the control value of more than 50%) | Test F control value ([2]; spray treatment): L (L shows the control value of 50% or less) | Test A control value ([3]; spray treatment): H (H shows the control value of more than 50%)

O=c1c(Cl)cn(-c2ccccc2)c(-c2c(F)cc(F)cc2F)c1Cl [Compound 14]
Test H control value class (cucumber anthracnose) ([1]; 250 ppm spray): H (H shows the control value of more than 50%) | Test F control value class (tomato late blight) [2, 4]: L (L shows the control value of 50% or less) | Test A control value class (rice blast) ([3]; spray treatment of rice plants): H (H shows the control value of more than 50%)

Cc1ccc(Cl)cc1-n1cc(C)c(=O)c(C)c1-c1c(F)cccc1F [Compound 486]
Test H control value ([1]; 250 ppm spray): L (L shows the control value of 50% or less) | Test F control value ([2]; spray treatment): L (L shows the control value of 50% or less) | Test A control value ([3]; spray treatment): L (L shows the control value of 50% or less)

Cc1ccccc1-n1cc(C)c(=O)c(C)c1-c1ccc(C(F)(F)F)cc1 [Compound 244]
Test H control value ([1]; 250 ppm spray (2.5 ml/pot)): H (H shows the control value of more than 50%) | Test F control value [2, 4]: L (L shows the control value of 50% or less) | Test A control value ([3]; spray treatment of rice plants): L (L shows the control value of 50% or less)

Cc1cccc(C)c1-n1cc(Cl)c(=O)c(Cl)c1-c1ccc(F)cc1 [Compound 345]
Test H control value ([1]; 250 ppm spray (2.5 ml/pot)): H (H shows the control value of more than 50%) | Test F control value [2, 4]: L (L shows the control value of 50% or less) | Test A control value ([3]; spray treatment of rice plants): L (L shows the control value of 50% or less)

Cc1ccccc1-n1cc(C)c(=O)c(C)c1-c1ccoc1 [Compound 287]
Test H control value ([1]; 250 ppm spray (2.5 ml/pot)): L (L shows the control value of 50% or less) | Test F control value [2, 4]: L (L shows the control value of 50% or less) | Test A control value ([3]; spray treatment of rice plants): L (L shows the control value of 50% or less)

CCOc1cccc(-n2cc(Br)c(=O)c(Br)c2-c2c(F)cc(F)cc2F)c1C [Compound 422]
Test H control value ([1]; 250 ppm spray): H (H shows the control value of more than 50%) | Test F control value ([2]; spray treatment): L (L shows the control value of 50% or less) | Test A control value ([3]; spray treatment): H (H shows the control value of more than 50%)

Cc1cccc(-n2cc(C)c(=O)c(C)c2-c2c(F)cccc2F)c1C [Compound 478]
Test H control value ([1]; 250 ppm spray): H (H shows the control value of more than 50%) | Test F control value ([2]; spray treatment): L (L shows the control value of 50% or less) | Test A control value ([3]; spray treatment): H (H shows the control value of more than 50%)

C#Cc1cn(-c2ccccc2C)c(-c2c(F)cc(F)cc2F)c(C)c1=O [Compound 272]
Test H control value ([1]; 250 ppm spray (2.5 ml/pot)): H (H shows the control value of more than 50%) | Test F control value [2, 4]: L (L shows the control value of 50% or less) | Test A control value ([3]; spray treatment of rice plants): H (H shows the control value of more than 50%)

O=c1c(Br)cn(-c2ccccc2)c(-c2c(F)cccc2F)c1Cl [Compound 362]
Test H control value ([1]; 250 ppm spray (2.5 ml/pot)): H (H shows the control value of more than 50%) | Test F control value [2, 4]: L (L shows the control value of 50% or less) | Test A control value ([3]; spray treatment of rice plants): H (H shows the control value of more than 50%)

Cc1cc(F)ccc1-n1cc(Cl)c(=O)c(Br)c1-c1c(F)cc(F)cc1F [Compound 275]
Test H control value ([1]; 250 ppm spray (2.5 ml/pot)): H (H shows the control value of more than 50%) | Test F control value [2, 4]: L (L shows the control value of 50% or less) | Test A control value ([3]; spray treatment of rice plants): H (H shows the control value of more than 50%)

Cc1ccccc1-c1c(C)c(=O)c(C)cn1-c1ccccc1 [Compound 580]
Test H control value ([1]; 250 ppm spray): H (H shows the control value of more than 50%) | Test F control value ([2]; spray treatment): L (L shows the control value of 50% or less) | Test A control value ([3]; spray treatment): H (H shows the control value of more than 50%)

Cc1cccc(Cl)c1-n1cc(Cl)c(=O)c(Cl)c1-c1c(F)cc(F)cc1F [Compound 319]
Test H control value ([1]; 250 ppm spray (2.5 ml/pot)): L (L shows the control value of 50% or less) | Test F control value [2, 4]: L (L shows the control value of 50% or less) | Test A control value ([3]; spray treatment of rice plants): L (L shows the control value of 50% or less)

O=c1c(Br)cn(-c2ccccc2)c(-c2ccc(Cl)cc2Cl)c1Cl [Compound 588]
Test H control value ([1]; 250 ppm spray): H (H shows the control value of more than 50%) | Test F control value ([2]; spray treatment): L (L shows the control value of 50% or less) | Test A control value ([3]; spray treatment): H (H shows the control value of more than 50%)

C=Cc1cn(-c2ccccc2C)c(-c2c(F)cc(F)cc2F)c(C)c1=O [Compound 340]
Test H control value ([1]; 250 ppm spray (2.5 ml/pot)): H (H shows the control value of more than 50%) | Test F control value [2, 4]: L (L shows the control value of 50% or less) | Test A control value ([3]; spray treatment of rice plants): H (H shows the control value of more than 50%)

COCCOc1ccc(C)c(-n2cc(Br)c(=O)c(Cl)c2-c2c(F)cc(OC)cc2F)c1 [Compound 283]
Test H control value ([1]; 250 ppm spray (2.5 ml/pot)): H (H shows the control value of more than 50%) | Test F control value [2, 4]: L (L shows the control value of 50% or less) | Test A control value ([3]; spray treatment of rice plants): H (H shows the control value of more than 50%)

CCc1c(-c2c(F)cccc2F)n(-c2cc(OC)ccc2C)cc(C)c1=O [Compound 560]
Test H control value ([1]; 250 ppm spray): H (H shows the control value of more than 50%) | Test F control value ([2]; spray treatment): L (L shows the control value of 50% or less) | Test A control value ([3]; spray treatment): H (H shows the control value of more than 50%)

Cc1ccc(O)cc1-n1cc(Br)c(=O)c(Cl)c1-c1c(F)cccc1F [Compound 426]
Test H control value ([1]; 250 ppm spray): L (L shows the control value of 50% or less) | Test F control value ([2]; spray treatment): L (L shows the control value of 50% or less) | Test A control value ([3]; spray treatment): L (L shows the control value of 50% or less)

Cc1cn(-c2ccccc2)c(-c2ccccc2)c(C)c1=O [Compound 537]
Test H control value ([1]; 250 ppm spray): L (L shows the control value of 50% or less) | Test F control value ([2]; spray treatment): H (H shows the control value of more than 50%) | Test A control value ([3]; spray treatment): L (L shows the control value of 50% or less)

Cc1cn(-c2ccccc2)c(-c2cccc(F)c2F)c(C)c1=O [Compound 615]
Test H control value ([1]; 250 ppm spray): H (H shows the control value of more than 50%) | Test F control value ([2]; spray treatment): L (L shows the control value of 50% or less) | Test A control value ([3]; spray treatment): L (L shows the control value of 50% or less)

COc1cc(F)c(-c2c(Cl)c(=O)c(Br)cn2-c2cccnc2OC)c(F)c1 [Compound 40]
Test H control value class (cucumber anthracnose) ([1]; 250 ppm spray): H (H shows the control value of more than 50%) | Test F control value class (tomato late blight) [2, 4]: L (L shows the control value of 50% or less) | Test A control value class (rice blast) ([3]; spray treatment of rice plants): H (H shows the control value of more than 50%)

Cc1ccc(F)cc1-n1cc(Cl)c(=O)c(Cl)c1-c1c(F)cccc1F [Compound 450]
Test H control value ([1]; 250 ppm spray): H (H shows the control value of more than 50%) | Test F control value ([2]; spray treatment): L (L shows the control value of 50% or less) | Test A control value ([3]; spray treatment): H (H shows the control value of more than 50%)

CCc1c(-c2c(F)cccc2F)n(-c2ccccc2)cc(C)c1=O [Compound 555]
Test H control value ([1]; 250 ppm spray): H (H shows the control value of more than 50%) | Test F control value ([2]; spray treatment): H (H shows the control value of more than 50%) | Test A control value ([3]; spray treatment): H (H shows the control value of more than 50%)

CCc1c(-c2c(F)cc(F)cc2F)n(-c2cc(OC)ccc2C)cc(Br)c1=O [Compound 527]
Test H control value ([1]; 250 ppm spray): H (H shows the control value of more than 50%) | Test F control value ([2]; spray treatment): L (L shows the control value of 50% or less) | Test A control value ([3]; spray treatment): H (H shows the control value of more than 50%)
